# From PubChem BioAssay AID686979 (National Center for Advancing Translational Sciences (NCATS), 2013)
# Where “and” joins values, the source holds several entries; their conditions need not be identical. Equal entries are not always repeated. Screen size: about 420,000 compounds; about 50,000 (12%) were called active. Inconclusive means that the source gave no clear call. Such entries were picked first, then a sample of the others. The call rests on the fitted dose curve; in most records, active means well fitted inhibition curve with a large enough effect; inconclusive means small, poorly fitted or top-dose-only effect; inactive means flat fitted curve, though single readings scatter. Potencies of inconclusive entries are doubtful fits and often do not repeat. Where a structure was tested more than once in an assay, its records may differ in their call.
# Assay: qHTS for Inhibitors of human tyrosyl-DNA phosphodiesterase 1 (TDP1): qHTS in cells in presence of CPT; further: nearly all actives have a fitted effect of over 55% in size
# Conditions: chicken DT40 Tdp1-/-;hTDP1 cells + 20 nM CPT, ATP luminescence, 48 h; activity change, negative = growth inhibition: at 46.2 µM (top of the series)
# How it was run: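 Chicken DT40 Tdp1-/- cells complemented with human TDP1, 400 cells/well, exposed to compounds plus 20 nM camptothecin for at least 48 h at 37 C; viability read as ATP content by CellTiter-Glo luminescence.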
# On the % scale 0 is the no-effect control and ±100 the full control effect; potency means the concentration at half of the fitted maximal effect; tags describe the fitted curve by direction and shape.
Compound,Potency,"activity change, negative = growth inhibition"
CCCCn1nnnc1NCc1cccnc1,active: 8.2 µM,–
CCCOc1ccc(CNC(=O)C2CCN(c3nc4ccccc4nc3C(F)(F)F)CC2)cc1,"inconclusive: 16.4 µM [inhibitor, partial curve]",–
O=C(CN1CCCC1)Nc1ccc(NC(=O)Nc2ccccc2)cc1,–,inactive: 6.56%
CCOc1ccc(Br)cc1S(=O)(=O)N1CCCN(C)CC1,"inconclusive: 11.6 µM [inhibitor, partial curve]",–
O=C(NCCc1nnc2ccc(NCc3ccccc3Cl)nn12)c1ccccc1,–,inactive: 11.2%
N#C/C(=C\c1cccs1)C(=O)Nc1nccs1,"inconclusive: 29.1 µM [inhibitor, single point]",–
Cc1ccc(SCC(=O)Nc2cccc(-c3nc4cc(Cl)ccc4o3)c2C)cc1,"inconclusive: 29.1 µM [inhibitor, single point]",–
COc1cc2nc(CN(C)Cc3ccc(C(C)(C)C)cc3)[nH]c(=O)c2cc1OC,"inconclusive: 20.6 µM [inhibitor, single point]",–
COC(=O)C1=C(CCc2ccccc2)NC(=O)NC1c1ccc([N+](=O)[O-])cc1 (stereo unspecified),"inconclusive: 18.4 µM [inhibitor, single point]",–
CCc1ccc(OCC(=O)NCCOc2ccccc2)cc1,"inconclusive: 8.2 µM [inhibitor, partial curve, poor fit]",–
COc1cc(C2SC(C)C(=O)N2CCc2ccccc2)cc(OC)c1OC (stereo unspecified),"inconclusive: 32.6 µM [inhibitor, single point]",–
CC1COc2ccccc2N1S(=O)(=O)c1ccccc1 (stereo unspecified),"inconclusive: 23.1 µM [inhibitor, single point]",–
CC(C)c1ccc(S(=O)(=O)N2CCN(CCC(=O)Nc3ccc(N(C)C)cc3)CC2)cc1,"inconclusive: 18.4 µM [inhibitor, single point]",–
CCCN(Cc1nnc(-c2ccccc2Cl)o1)C(=O)c1cccc(S(=O)(=O)N2CCOCC2)c1,"inconclusive: 23.1 µM [inhibitor, single point]",–
O=C(CN1C2=NCCN2c2ccccc21)c1ccc(Br)s1,active: 18.4 µM,–
CN1CCN(c2ccc3c(c2)C2CC3CCN2C(=O)OCc2ccccc2)CC1 (stereo unspecified),"inconclusive: 20.6 µM [inhibitor, single point]",–
Cc1cccc(NC(=O)C(c2cccc([N+](=O)[O-])c2)N2CCCCC2)c1 (stereo unspecified),"inconclusive: 16.4 µM [inhibitor, single point]",–
COC(=O)CC1CC2(C(=O)OC)c3[nH]c4ccccc4c3CCN2C1=O (stereo unspecified),–,inactive: -4.08%
COC(=O)c1cc2sccc2n1Cc1ccccc1,–,inactive: -6.98%
CCCNC(=O)c1ccc(SCC(=O)N(CC)CC)c([N+](=O)[O-])c1,–,inactive: -15.7%
COc1cc2c(cc1OC)CN(C(=O)CN1C(=O)c3ccc([N+](=O)[O-])cc3C1=O)CC2,–,inactive: -13%
O=[N+]([O-])c1cccc(-c2cn3ccccc3n2)c1,"inconclusive: 18.4 µM [inhibitor, single point]",–

Compound,Potency,"activity change, negative = growth inhibition"
Fc1cccc(Cc2c(-c3cccc(Br)c3)nc3c(Cl)cc(C(F)(F)F)cn23)c1,–,inactive: -18.6%
COc1ccc(S(=O)(=O)NCc2ccc(C(=O)NCCCN3CCCC(C)C3)cc2)cc1 (stereo unspecified),"inconclusive: 23.1 µM [inhibitor, single point]",–
COc1cccc(NS(=O)(=O)c2ccc3[nH]cc(C(=O)NC4CCCCC4)c(=O)c3c2)c1,active: 18.4 µM,–
CC(=O)N1CCN(c2ccc(NCc3cccc4ccccc34)cc2)CC1,"inconclusive: 25.9 µM [inhibitor, single point]",–
Cc1cc(-c2nn(-c3ccccc3F)cc2CN2CCN(c3ccccn3)CC2)c(C)s1,active: 13 µM,–
CCCCCOC(=O)CC(C(=O)OCCCCC)N1CCCCC1 (stereo unspecified),"inconclusive: 23.1 µM [inhibitor, single point]",–
CCN(CC)CCn1c2ccccc2c2nc3ccccc3nc21,"inconclusive: 29.1 µM [inhibitor, single point]",–
CC(=O)Nc1ccc(S(=O)(=O)N2CCN(Cc3cccs3)CC2)cc1,"inconclusive: 29.1 µM [inhibitor, single point]",–
c1ccc(CCN2CN(CCCN3CCOCC3)c3nc4ccccc4n3C2)cc1,"inconclusive: 29.1 µM [inhibitor, single point]",–
O=S(=O)(NCc1ccccc1)c1ccc2[nH]c3c(c2c1)CCCCC3,"inconclusive: 18.4 µM [inhibitor, single point]",–
C/C(=N\NC(=O)c1ccc(N/N=C(\C)c2ccncc2)cc1)c1ccncc1,"inconclusive: 29.1 µM [inhibitor, single point]",–
c1ccc(-c2csc3ncnc(-n4cnc5ccccc54)c23)cc1,"inconclusive: 29.1 µM [inhibitor, single point]",–
CCc1nc(SCC(=O)Nc2ccc(F)cc2F)c2c(=O)n(C)c(=O)n(C)c2n1,"inconclusive: 25.9 µM [inhibitor, single point]",–
COc1ccc(CCNC(=O)C(=O)NCC2OCCN2S(=O)(=O)c2cccs2)cc1 (stereo unspecified),–,inactive: -14.7%
COc1ccc(NC(=O)N(C)C[C@@H]2OCc3ccccc3-c3c(n(C)c4ccccc34)C(=O)N([C@H](C)CO)C[C@H]2C)c(OC)c1,active: 14.6 µM,–
COc1ccc(C)cc1NCc1cc(=O)oc2cc(-c3ccccc3)c(O)cc12,"inconclusive: 29.1 µM [inhibitor, single point]",–
CCOC(=O)C1=CCN(S(=O)(=O)c2ccccc2)C1c1ccc(Cl)cc1 (stereo unspecified),–,inactive: -25.1%
Cc1cccc(NC(=O)c2cc([N+](=O)[O-])ccc2NC2CCCCC2)c1,"inconclusive: 29.1 µM [inhibitor, single point]",–
Cc1ccc(C(=O)/C=C/c2c(C)nn(-c3ccccc3)c2Cl)cc1,"inconclusive: 29.1 µM [inhibitor, single point]",–
O=C(c1cn(CC2CCCCC2)nn1)N1CCN(c2ccc(F)cc2)CC1,–,inconclusive: -34.7% [inhibitor]
CCN(CC)C(=O)C1=C(C)N(Cc2ccc(OC)cc2)C(=O)C(CC(=O)NCC2CCCCC2)C1 (stereo unspecified),"inconclusive: 29.1 µM [inhibitor, single point]",–
CCn1c(SCc2ccc(Cl)c(Cl)c2)nnc1C(C)NC(=O)c1ccc(OC)cc1 (stereo unspecified),active: 16.4 µM,–

Compound,Potency,"activity change, negative = growth inhibition"
Cc1cc(C)cc(NC(=O)CSc2ccc(-c3ccccn3)nn2)c1,active: 16.4 µM,–
O=C(Nc1c(C(=O)Nc2ccccc2)cnn1-c1ccccc1)c1ccco1,–,inactive: -2.72%
NC(=O)Nc1ccc(Nc2ccccc2)cc1,"inconclusive: 29.1 µM [inhibitor, single point]",–
CCCCc1cc(=O)oc2cc(C)cc(OCC(=O)NCc3ccccn3)c12,"inconclusive: 29.1 µM [inhibitor, single point]",–
O=C1N(Cc2cccnc2)C[C@@H]2C[C@@H](c3ccc(-c4ccccc4)cc3)N3CCC[C@@]123,"inconclusive: 29.1 µM [inhibitor, single point]",–
Cc1c(CNC(C)c2ccccc2)c(C(=O)O)c(C)n1Cc1c(F)cccc1Cl (stereo unspecified),"inconclusive: 29.1 µM [inhibitor, single point]",–
CCO[C@@H]1OC(C(=O)NC2CC2)=C[C@H](c2c[nH]c3ccccc23)[C@H]1CCCO,–,inactive: 0.497%
O=C(NNc1nc(-c2ccccc2)cs1)c1cccs1,"inconclusive: 25.9 µM [inhibitor, single point]",–
O=C(COC(=O)c1ccc2c(c1)OCO2)NCc1ccc(Cl)cc1,"inconclusive: 18.4 µM [inhibitor, partial curve, poor fit]",–
CCOC(=O)[C@]12CCCC=C1N(Cc1ccc3c(c1)OCO3)C(=O)[C@H](CC(=O)NCCc1ccccc1OC)C2,"inconclusive: 16.4 µM [inhibitor, single point]",–
COc1ccc(OC)c(CCNC(=O)CS(=O)(=O)Cc2nc(-c3ccccc3Cl)oc2C)c1,"inconclusive: 23.1 µM [inhibitor, single point]",–
O=C(NC1CCN(Cc2ccccc2)CC1)c1ccc(CS(=O)c2ccccc2Cl)o1 (stereo unspecified),"inconclusive: 25.9 µM [inhibitor, partial curve, poor fit]",–
Cc1ccc(C(=O)C2(C)C3c4cc(Br)ccc4OC(=O)C32C(=O)c2ccco2)cc1 (stereo unspecified),–,inactive: -17.1%
Cc1cnc(NC(=O)CCNC(=O)c2ccc([N+](=O)[O-])cc2)s1,"inconclusive: 20.6 µM [inhibitor, single point]",–
COc1ccc(C2=C(C#N)C(=O)OC2)cc1,"inconclusive: 20.6 µM [inhibitor, single point]",–
CCOC(=O)C1CCCN(C(=O)c2cc3c(=O)n(C)c4ccccc4c3s2)C1 (stereo unspecified),"inconclusive: 25.9 µM [inhibitor, single point]",–
COc1ccc(Cc2nc3ccc(C(=O)N4CCCCC4CO)cc3o2)cc1OC (stereo unspecified),"inconclusive: 18.4 µM [inhibitor, single point]",–
COc1cc(-c2noc(C)c2C#CC2(N)CCCCC2)cc(OC)c1OC,"inconclusive: 25.1 µM [inhibitor, single point] and inconclusive: 25.9 µM [inhibitor, single point]",–
Cc1ccc(-c2cc(-c3ccccc3)nc(NN)n2)cc1,"inconclusive: 2.59 µM [inhibitor, partial curve]",–
O=C(CCCN=C1NS(=O)(=O)c2ccccc21)OCc1ccc(F)cc1,"inconclusive: 29.1 µM [inhibitor, single point]",–
CCCCOC(=O)c1cc2c(cn1)[nH]c1ccccc12,inactive and active: 21.1 µM,–
c1ccc2c(c1)CN1C(=N2)COc2ccccc2C1c1nc2ccccc2[nH]1 (stereo unspecified),"inconclusive: 6.51 µM [inhibitor, full curve, poor fit]",–
